The supplement of paper PMC5499739
In all, about 16,000 sequences were measured (“Z-score”: median about -0.37, highest 2% from about 3.1 on). This is one part of the list.

Tested on: RBM10 RRM1-ZnF-RRM2 (GST-tagged construct)
Experiment: RNAcompete 7-mer binding Z-score; higher = stronger binding preference
Procedure: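 RNAcompete: 20 pmol GST-tagged RBM10 RNA-binding constructs were incubated with a designed RNA pool of about 241,000 sequences up to 41 nt (1.5 nmol) on glutathione beads for 30 min at 4 °C and washed. Bound RNAs were identified by microarray hybridisation. Each RNA 7-mer is scored by a one-sided Z-score of its enrichment, computed over probes that contain the 7-mer within longer pool sequences.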

Sequence	RNAcompete 7-mer binding Z-score
UGCCAAG	-0.264
GCUCCGG	-0.235
UCACUUA	-0.741
CUCAAUG	-0.293
AGCCUCA	-0.872
CCCUGGG	0.221
CACUUCG	-0.792
UCCGCCC	-0.803
ACAGCGC	-0.22
GAGCAAC	0.0204
ACAGUCA	-0.22
UUAACGA	-0.351
UUUUACA	-0.632
UUAAUAU	-0.475
UCAGGUG	1.27
AGAGGCC	-0.628
UAGCACC	-0.573
AACUUUA	-0.679
ACAAUGG	2.21
CGCUGGU	0.0058
CAUUCAG	-0.526
UUUGCAC	-0.679
CUGAUGG	0.29

Sequence	RNAcompete 7-mer binding Z-score
GAAAUCA	-0.151
CCGUUUG	-0.916
UUUCCUA	-0.806
CGAGCAA	-0.0452
CCAGGAG	0.723
CUGAGGU	0.508
GUCGUGC	-0.133
UUGCCUG	-0.861
CCGAAGU	-0.417
UAGUUCG	-0.296
CCGGUGG	1.15
UGAAACU	-0.464
UUAAGAU	-0.34
UACAAUU	-0.53
CCGAGGG	1.01
GAGAAUU	-0.0488
GGGUAAA	3.9
AAUCGUG	-0.162
CAGUGGG	2.93
UCUGCCU	-0.967
UCACGGC	-0.617
CUUCACU	-0.806
UAGCGGU	0.312

Sequence	RNAcompete 7-mer binding Z-score
CUUAUGA	-0.777
CCUUUUA	-1.01
GGUUGAA	1.41
CAUAGCC	-0.737
ACUACCU	-0.821
CUGUACG	-0.398
UAAAGGA	1.64
GCAUGCA	-0.147
GCUGCGC	-0.315
GCGAUUU	-0.606
GUCUUUA	-0.606
UUUAUAG	-0.617
UAGUAUU	-0.224
GCGUGGU	1.4
GGCGAAC	1.11
CCACCAA	-0.803
CGUAGGC	0.64
GUACGAC	-0.00512
CGGGGCG	2.68
GCUUUCU	-0.766
UUCAUAC	-0.857
CCCACUC	-0.715
UACACCG	-0.479

Sequence	RNAcompete 7-mer binding Z-score
GCCACAC	-0.57
AGCGAGU	0.811
CCAUGUG	-0.373
AGGUCCG	-0.067
GCCGCAG	-0.26
UGUAUUC	-0.53
UUGGAUG	1.37
CCGCAUG	-0.562
CUUCAGA	-0.894
CUAUCAC	-0.89
CGACUCC	-0.945
AACACCA	-0.504
GUAUGCC	-0.504
GGACACA	0.953
UUGGGCC	0.202
GGUUUGG	2.78
AAGUGUC	-0.322
UUUAUAU	-0.617
AACAUAC	-0.599
AAGAAGC	0.232
UCUAAUG	-0.577
GGCAACG	1.18
AGAGUCA	0.166

Sequence	RNAcompete 7-mer binding Z-score
UCGCUAU	-0.704
GUGUCUU	-0.442
ACCUGAG	-0.453
GUGCACG	0.487
UGUAAAC	-0.231
AGGGGUU	2.42
GAACUGG	1.17
UUAAUUU	-0.668
GCUAUGA	-0.187
CUGGGGC	0.956
CGAAUAA	-0.224
UCAAUCA	-0.435
CAAUGAC	-0.439
UCUUUCU	-0.755
UACCAUU	-0.708
CGCAUUG	-0.377
AUACAGC	-0.162
UGGCAAU	0.705
CAGCUUU	-0.923
CCAAAGU	-0.395
GACCAGA	-0.162
UGUCGGU	-0.0889
GUCUCGC	-0.646

Sequence	RNAcompete 7-mer binding Z-score
AGUGAAG	1.65
CCAGCCU	-0.876
UCCGGGG	1.24
AGAAAGU	0.264
UAACCUU	-0.719
UCGUACU	-0.446
UACGCCU	-0.81
UGCCUCU	-0.916
GGUCUCC	-0.304
GUACCUA	-0.511
CUUUGAU	-0.887
UACUUCU	-0.905
GCCCUUC	-0.843
CCUUAGA	-0.744
ACUGCUC	-0.93
AGCAAAC	-0.0998
CCCGAAG	-0.672
AACUUCA	-0.675
UGUGCGU	0.0859
ACAGUAG	0.457
AACGUGA	0.243
UCCUGUG	-0.522
CUAAUCG	-0.453

Sequence	RNAcompete 7-mer binding Z-score
UACCAAG	-0.122
ACCUCGC	-0.715
CCGAGCC	-0.781
CGAGCGC	-0.267
GGGAACU	1.32
AUUCGCG	-0.409
CAUUACU	-0.734
AGUUCAG	-0.118
UAGAAGG	3.2
UACUGAU	-0.49
GUUGAAG	1.61
UCAGCGU	-0.26
GGAGUUU	0.942
ACUCAAA	-0.734
UAGUGGA	1.52
AAGUUGC	-0.293
AGCGCCG	-0.366
CCAAAUG	-0.435
AACCUUG	-0.799
AACGCUU	-0.741
UCGAACG	-0.0598
UAGAUCC	-0.49
UAAGCGU	0.0823

Sequence	RNAcompete 7-mer binding Z-score
AGAAUAG	0.665
GGUCUUC	-0.18
AACGAAC	-0.0525
CCCUGCA	-0.857
CUGUAGA	-0.442
CAUCGUU	-0.664
GUGACUG	0.436
ACGCCCU	-0.752
UAUGGAG	1.68
ACGCAAA	-0.307
AAUACGU	-0.195
GGCGACA	0.982
AAGGGGU	4.33
CGUCGUU	-0.253
CGAAAUC	-0.683
CGAAAUU	-0.675
AGAUCCG	-0.828
GAAAACA	0.374
CUGCUAC	-0.748
GCGCUCC	-0.515
ACAGUAC	-0.173
CGAUAUA	-0.337
